In the supplement of paper PMC8285479:
Where a name gives a salt, the structure may show the parent alone. ± gives the standard deviation of the averaged measurements. In all, about 1,900 compounds were measured (“normalised cell viability (NPI; 0 = phenylarsine oxide control, 1 = DMSO control)”: median about 1, lowest 2% from about 0.039 on). The list shows a part of the results.

Test system: NCI-H1944
Experiment: normalised cell viability (NPI; 0 = phenylarsine oxide control, 1 = DMSO control) (fraction of DMSO control); NCI-H1944 is a non-small cell lung cancer line; higher = more viable cells (less compound toxicity)
Settings: 6 days
[1] = glucocorticoid arm: hydrocortisone 2.75 uM co-treatment, compound 1 µM
[2] = glucocorticoid arm: hydrocortisone 2.75 uM co-treatment, compound 5 µM
[3] = glucocorticoid arm: hydrocortisone 2.75 uM pre-treated 2 days and continued, compound 1 µM
[4] = glucocorticoid arm: hydrocortisone 2.75 uM pre-treated 2 days and continued, compound 5 µM
[5] = glucocorticoid arm: vehicle, compound 1 µM
[6] = glucocorticoid arm: vehicle, compound 5 µM
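Further: CTB read-out in 384-well plates, mean of triplicate wells, normalised per plate against 1 µM phenylarsine oxide and 0.1% DMSO, compounds added 24 h after seeding.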

Compound	normalised cell viability [1]	normalised cell viability [2]	normalised cell viability [3]	normalised cell viability [4]	normalised cell viability [5]	normalised cell viability [6]
Clc1cc(I)cc(Cl)c1NC1=NCCN1 [p-Iodoclonidine hydrochloride]	0.998 ± 0.011	0.969 ± 0.039	0.994 ± 0.018	1.02 ± 0.07	0.967 ± 0.0053	0.98 ± 0.013
C[C@@H](N)Cc1cnc[nH]1 [Histamine, R(-)-alpha-methyl-, dihydrochloride]	0.997 ± 0.0027	0.997 ± 0.011	1	0.994 ± 0.014	0.9917 ± 0.0045	0.9963 ± 0.0032
C[C@H]1O[C@@H](C[N+](C)(C)C)CS1	1.013 ± 0.0058	1.007 ± 0.0058	1	1 ± 0.024	0.9857 ± 0.0046	0.9857 ± 0.0038
Cc1nccc2c1[nH]c1ccccc12 [Harmane]	1.007 ± 0.0058	0.97 ± 0.026	1 ± 0.013	0.986 ± 0.01	1.01 ± 0.012	1.003 ± 0.0058
CCCN1CCc2cccc3c2[C@H]1Cc1ccc(O)c(O)c1-3 [R(-)-Propylnorapomorphine hydrochloride]	0.9857 ± 0.0063	0.987 ± 0.018	0.984 ± 0.027	0.971 ± 0.0087	0.988 ± 0.0027	0.981 ± 0.0076
c1ccc2c(c1)[I+]c1ccccc1-2 [Diphenyleneiodonium chloride]	0.45 ± 0.015	0.0556 ± 0.0019	0.649 ± 0.014	0.0883 ± 0.044	0.232 ± 0.015	0.00555 ± 0.0077
COc1ccc2c(c[n+](C)c3c4cc5c(cc4ccc23)OCO5)c1OC [Chelerythrine chloride]	1.02 ± 0.01	0.184 ± 0.022	1.023 ± 0.0058	1.04 ± 0.042	0.995 ± 0.004	0.365 ± 0.035
CNc1ccc2oc(C[C@H]3O[C@@]4(CC[C@H]3C)O[C@H]([C@H](C)C(=O)c3ccc[nH]3)[C@H](C)C[C@H]4C)nc2c1C(=O)O [Calcimycin]	0.909 ± 0.018	0.0265 ± 0.002	1.01 ± 0.013	0.0205 ± 0.0037	0.91 ± 0.036	0.0377 ± 0.014
CN(N=O)c1cc(O)ccc1O [Dephostatin]	0.9973 ± 0.0031	0.999 ± 0.01	0.997 ± 0.015	0.9877 ± 0.005	0.987 ± 0.0027	0.9903 ± 0.0065
CC(N)Cc1c[nH]c2ccc(O)cc12 (stereo not drawn) [alpha-Methyl-5-hydroxytryptamine maleate]	0.984 ± 0.016	0.959 ± 0.017	0.9953 ± 0.0055	1.01 ± 0.092	0.9843 ± 0.0032	0.983 ± 0.012
N[C@H](CCCCCP(=O)(O)O)C(=O)O [D(-)-2-Amino-7-phosphonoheptanoic acid]	0.9967 ± 0.0058	1.01 ± 0.013	0.997 ± 0.003	1.01 ± 0.018	0.997 ± 0.011	1.01
Oc1cc2c(cc1O)[C@H]1c3ccccc3CN[C@@H]1CC2 (racemic) [Dihydrexidine hydrochloride]	1.002 ± 0.0068	0.995 ± 0.005	1.002 ± 0.0076	0.994 ± 0.018	0.9917 ± 0.0059	0.9897 ± 0.0031
c1ccc(C2(c3ccccc3)CC2C2=NCCN2)cc1 (centres undefined) [Cibenzoline succinate]	0.992 ± 0.013	0.994 ± 0.027	1.003 ± 0.0058	1.02 ± 0.078	1.007 ± 0.0058	1.01 ± 0.01
C[C@]12N[C@H](Cc3ccccc31)c1ccccc12 [MK-801 (Dizocilpine)]	1.02 ± 0.01	1.03 ± 0.017	1.02 ± 0.017	1.04 ± 0.032	1.017 ± 0.0058	1.01 ± 0.01
